T1: B7-1Ig (UniProt P33681 35-242, limits assumed)
T1 construct: Immobilised by amine coupling on a CM5 sensor chip; also called B7Ig; CD80-Ig; not shown: immunoglobulin portion of the fusion
T1 sequence (looked up): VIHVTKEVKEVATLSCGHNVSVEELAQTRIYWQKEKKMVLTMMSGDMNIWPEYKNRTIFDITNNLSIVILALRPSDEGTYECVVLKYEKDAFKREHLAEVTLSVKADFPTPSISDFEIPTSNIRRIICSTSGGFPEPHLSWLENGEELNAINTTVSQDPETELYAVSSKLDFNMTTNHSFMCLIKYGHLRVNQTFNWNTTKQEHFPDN


Tests used:
B7-1Ig [1] = target: T1, B7-1Ig; test: SPR (Biacore) kinetics; low-density B7-1Ig chip (694 RU); samples 75-200 nM
Experimental: In Table 11, sample concentrations of 75-200 nM were tested on B7-1Ig chip (694 RU).

B7-1Ig [2] = target: T1, B7-1Ig; test: SPR (Biacore), mass transfer limited, high-density B7-1Ig chip
Excerpt: The invention provides methods for evaluation of CTLA4-Ig dimer and tetramer binding to B7-1Ig. Physical characteristics (e.g. diffusion coefficient, molecular weight, binding valency) and instrument operational parameters (e.g. flow rate, chip density) can influence the Biacore assay results. Under mass transfer limitation; the binding rate of tetramer is approximately 20% slower than dimer for the same molar concentration. At a specified flow rate, it is possible that tetramer molecules penetrated the matrix less efficiently compared to the dimer. […] Molar concentrations of tetramer can be calculated based on a dimer standard curve.
Binding of CTLA4-Ig dimer and tetramer to B7-1Ig using surface plasmon resonance: Concentration Analyses: Concentration analyses of the various CTLA4-Ig species to B7-1Ig were performed on a Biacore 3000 instrument (Biacore, Piscataway, N.J.) according to Method 7441-4² with minor modifications. […]
A CM5 sensor chip was immobilized with B7-1Ig at a concentration of 20 μg/mL in acetate buffer, pH 5.0, aiming for a target density of 6000-12000 resonance unit (RU). […] Test samples, consisting of either monomer or dimer, were diluted to a target concentration of −2000 ng/mL and analyzed on the Biacore. Concentrations were determined by the BIAevaluation software (version 4.0.1) using standard curves of either CTLA4-Ig material (>98% monomer) or purified dimer.

| koff (B7-1Ig [1]) [s⁻¹] | kon (B7-1Ig [1]) [M⁻¹ s⁻¹] | initial binding rate relative to CTLA4-Ig dimer (B7-1Ig [2]) [fold] | Binder |
| --- | --- | --- | --- |
| 0.00973 | 377000 |  | Protein A eluate of the CTLA4-Ig HIC cleaning peak (Fc fusion, glycosylated, A mixture of all CTLA4-Ig species (dimer, tetramer, hexamer, multimer), so no single copy number applies) not shown |
|  |  | ~0.8 | CTLA4-Ig tetramer (Fc fusion, glycosylated; less sialylated than the dimer, Two covalent dimers associated non-covalently; Purified from the HIC cleaning peak by Protein A chromatography and preparative SEC; also called purified tetramer) not shown |
